Reference: the supplement of paper PMC8183993
Where “and” joins values, the source holds several entries; their conditions need not be identical. Identical values can stand only once. Counter-ions that a name gives are not always drawn. ± gives the standard deviation of the averaged measurements. Whole data set: some 3,200 compounds, median “nuclei count (viability) relative to DMSO” near 99, cut for the lowest 2% near 16. The list shows a part of the results.

These compounds were tested on U2OS (assay: nuclei count (viability) relative to DMSO (% of DMSO); higher = more viable cells). Settings: 10 µM; 24 h.
Protocol: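 Primary image-based screen in U2OS cells: compounds at 10 uM for 24 h, then a 1 h o-propargyl-puromycin (OPP) pulse, click labelling, and high-throughput microscopy. Mean cytoplasmic OPP intensity and nuclei count were normalised to DMSO wells within each plate (DMSO = 100) and averaged over triplicate plates.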

Row | SMILES | nuclei count
1 | CCC[C@H](NC(=O)/C(C#N)=C/c1cccc(Br)n1)c1ccccc1 | 5.45
2 | Cc1ccc(/C(=C\CN2CCCC2)c2ccccn2)cc1 [trans-Triprolidine hydrochloride] | 102
3 | Cc1ccc(/C(=C\CN2CCCC2)c2ccccn2)cc1 [Triprolidine hydrochloride] | 117
4 | C=C1/C(=C\C=C2/CCC[C@]3(C)[C@@H]([C@H](C)CCCC(C)(C)O)CC[C@@H]23)C[C@@H](O)C[C@@H]1O [1a,25-Dihydroxyvitamin D3] | 92.6
5 | C=C1/C(=C\C=C2/CCC[C@]3(C)[C@@H]([C@H](C)CCCC(C)(C)O)CC[C@@H]23)C[C@@H](O)C[C@@H]1O [Calcitriol (Rocaltrol)] | 110
6 | CC(C)(O/N=C(\C(=O)N[C@@H]1C(=O)N2C(C(=O)[O-])=C(C[n+]3ccccc3)CS[C@H]12)c1csc(N)n1)C(=O)O [Ceftazidime pentahydrate] | 97.4
7 | CN(Cc1ccccc1)C(=O)[C@H](Cc1ccc2ccccc2c1)NC(=O)[C@@H]1C[C@@H](O)CN1C(=O)c1cn(C)c2ccccc12 | 98
8 | Cc1cn([C@@H]2C[C@@H](O)[C@H](CO)O2)c(=O)[nH]c1=O [Telbivudine (Sebivo, Tyzeka)] | 92.3
9 | NC(=O)c1ncn([C@@H]2O[C@H](CO)[C@@H](O)[C@H]2O)c1O [Mizoribine (Bredinin)] | 103
10 | CN1CCN(C(c2ccccc2)c2ccc(Cl)cc2)CC1 (configuration not stated) [Chlorcyclizine hydrochloride] | 101
11 | O=C(N/N=C/c1ccc([N+](=O)[O-])o1)c1ccc(O)cc1 [Nifuroxazide] | 96.7
12 | Cc1cccc(Nc2cc(Cl)nc(SCC(=O)O)n2)c1C | 99.9 and 106
13 | Cc1cc(NC(=O)c2cccc(NC(=O)/C=C/CN(C)C)c2)ccc1Nc1nccc(-c2cccnc2)n1 | 36.1
14 | O=C(NC(NC(=S)Nc1ccc(F)c([N+](=O)[O-])c1)C(Cl)(Cl)Cl)C(c1ccccc1)c1ccccc1 (configuration not stated) | 70.6 ± 4.2
15 | N#CC(c1ccnc(NCCc2cccnc2)n1)c1nc2ccccc2s1 (configuration not stated) [JNK Inhibitor V] | 71.6
16 | OCc1ccc(O[C@@H]2O[C@H](CO)[C@@H](O)[C@H](O)[C@H]2O)cc1 [Gastrodin (Gastrodine)] | 94.5
17 | CN(N=O)C(=O)N[C@@H](C=O)[C@@H](O)[C@H](O)[C@H](O)CO [Streptozotocin] | 94.8
18 | CN(N=O)C(=O)N[C@@H](C=O)[C@@H](O)[C@H](O)[C@H](O)CO [Streptozocin] | 93.7
19 | Cn1cc(C2=C(c3ccc(Cl)cc3Cl)C(=O)NC2=O)c2ccccc21 | 94.8 and 92.7
20 | CCC(=O)[C@@]1(C)[C@H](C)C[C@H]2[C@@H]3CCC4=CC(=O)C=C[C@]4(C)[C@H]3[C@@H](O)C[C@@]21C [Rimexolone] | 100
21 | Cc1ccc(C(=O)Nc2ccc(S(=O)(=O)O)c3cc(S(=O)(=O)O)cc(S(=O)(=O)O)c23)cc1NC(=O)c1cccc(NC(=O)Nc2cccc(C(=O)Nc3cc(C(=O)Nc4ccc(S(=O)(=O)O)c5cc(S(=O)(=O)O)cc(S(=O)(=O)O)c45)ccc3C)c2)c1 [Suramin hexasodium salt] | 93.5
22 | CCc1cc(C(N)=S)ccn1 [Ethionamide] | 99.6
23 | CC[C@]12CCCN3CCc4c(n(c5ccccc45)C(=O)C1)[C@@H]32 [Eburnamonine (-)] | 69.4

Row | SMILES | nuclei count
24 | CCn1cc(C(=O)O)c(=O)c2cc(F)c(N3CCN(C)CC3)cc21 [Pefloxacine] | 105
25 | NC(=O)c1ccncc1 [Isonicotinamide] | 99.6
26 | CC#CCOC(=O)c1c(C)nc2sc3c(c2c1N)CCC(O)C3 (configuration not stated) | 102
27 | CCCCCCCCCCC(C)(C)C(=O)Nc1c(OC)cc(OC)cc1OC | 102
28 | C[C@@H]1CN(c2c(F)c(N)c3c(=O)c(C(=O)O)cn(C4CC4)c3c2F)C[C@H](C)N1 [Sparfloxacin] | 97.5
29 | CCOC(=O)c1c(C)[nH]c2ccc3c(c12)CN1CCc2cc(OC)ccc2C1O3 (configuration not stated) | 92.1
30 | CC[C@@H]1Cn2c(c3nc(-c4ccccc4)nc-3n(C)c2=O)N1 | 93.4
31 | COc1cc(NC(=O)c2ccc(-c3ccc(Cl)cc3)o2)cc(OC)c1 | 103
32 | CCOC(=O)CCC(=O)O[C@H]1[C@H](O[C@@H]2[C@@H](C)[C@H](O[C@H]3C[C@@](C)(OC)[C@@H](O)[C@H](C)O3)[C@@H](C)C(=O)O[C@H](CC)[C@@](C)(O)[C@H](O)[C@@H](C)C(=O)[C@H](C)C[C@@]2(C)O)O[C@H](C)C[C@@H]1N(C)C [Erythromycin Ethylsuccinate] | 104
33 | C[C@]12C=CC(=O)C=C1CC[C@@H]1C2=CC[C@]2(C)[C@@H](C(=O)CN3CCN(c4cc(N5CCCC5)nc(N5CCCC5)n4)CC3)CC[C@@H]12 | 99.7
34 | C=CCn1c(=O)n([C@@H]2O[C@H](CO)[C@@H](O)[C@H]2O)c2nc(N)[nH]c(=O)c21 | 98.2
35 | C[C@]12C=CC(=O)C=C1CC[C@@H]1[C@@H]2C(=O)C[C@@]2(C)[C@H]1CC[C@]2(O)C(=O)CO [Prednisone (Adasone)] | 102
36 | C[C@]12C=CC(=O)C=C1CC[C@@H]1[C@@H]2C(=O)C[C@@]2(C)[C@H]1CC[C@]2(O)C(=O)CO [Prednisone] | 101
37 | Nc1ncnc2nc(-c3ccc(N4CCOCC4)nc3)cc(-c3cccc(Br)c3)c12 [ABT 702 dihydrochloride] | 105
38 | CC1(C)[C@@H](O[C@H]2O[C@H](C(=O)O)[C@@H](O)[C@H](O)[C@H]2O[C@@H]2O[C@H](C(=O)O)[C@@H](O)[C@H](O)[C@H]2O)CC[C@]2(C)[C@H]3C(=O)C=C4[C@@H]5C[C@@](C)(C(=O)O)CC[C@]5(C)CC[C@@]4(C)[C@]3(C)CC[C@@H]12 [Glycyrrhizic acid] | 101
39 | CC1(C)[C@@H](O[C@H]2O[C@H](C(=O)O)[C@@H](O)[C@H](O)[C@H]2O[C@@H]2O[C@H](C(=O)O)[C@@H](O)[C@H](O)[C@H]2O)CC[C@]2(C)[C@H]3C(=O)C=C4[C@@H]5C[C@@](C)(C(=O)O)CC[C@]5(C)CC[C@@]4(C)[C@]3(C)CC[C@@H]12 [Ammonium Glycyrrhizinate (AMGZ)] | 101
40 | CNC(=C[N+](=O)[O-])NCCSCc1csc(CN(C)C)n1 [Nizatidine] | 92.8
41 | O=C(O)C1=CCNCC1 [Isoguvacine hydrochloride] | 106
42 | CCC1=C[C@@H]2CN(C1)Cc1c([nH]c3ccccc13)[C@@](C(=O)OC)(c1cc3c(cc1OC)N(C)[C@H]1[C@@](O)(C(=O)OC)[C@H](OC(C)=O)[C@]4(CC)C=CCN5CC[C@]31[C@@H]54)C2 [Vinorelbine (Navelbine)] | 16.1
43 | CCn1c(=O)[nH]c2ccccc21 | 93.4
44 | CC(C)CN(C[C@@H](O)[C@H](Cc1ccccc1)NC(=O)O[C@H]1CCOC1)S(=O)(=O)c1ccc(N)cc1 [Amprenavir (Agenerase)] | 112
45 | C=CC(=O)Nc1cccc(Nc2nc(Nc3ccc(NC4CN(CCF)C4)cc3OC)ncc2C(F)(F)F)c1 | 20.7
46 | COc1cc(C)nc(-n2nc(C)cc2OC)n1 [Epirizole] | 102

Row | SMILES | nuclei count
47 | CS(=O)(=O)Nc1ccc([N+](=O)[O-])cc1Oc1ccccc1 [Nimesulide] | 103 ± 6.9
48 | CCn1cc(C(=O)O)c(=O)c2cc(F)c(N3CCNC(C)C3)c(F)c21 (configuration not stated) [Lomefloxacin hydrochloride] | 98.5
49 | O=c1[nH]c(=O)n([C@H]2C[C@H](O)[C@@H](CO)O2)cc1F [Floxuridine] | 66.8
50 | O=c1[nH]c(=O)n([C@H]2C[C@H](O)[C@@H](CO)O2)cc1F [Floxuridine (Fludara)] | 81.6
51 | CNNCc1ccc(C(=O)NC(C)C)cc1 [Procarbazine hydrochloride] | 114
52 | CC(C)CC(NC(=O)OCC1c2ccccc2-c2ccccc21)C(=O)O (configuration not stated) | 96.9
53 | C[N+]1(C)CCC(=C(c2ccccc2)c2ccccc2)CC1 [Diphemanil methylsulfate] | 98.1
54 | COc1cc(/C=C/C(=O)O)ccc1O [Fumalic acid (Ferulic acid)] | 110
55 | O=C(NC1CCOCC1)c1ccc(-c2cc(-c3c[nH]nc3-c3ccccn3)ccn2)cc1 | 105
56 | O=C1C(=O)N(Cc2ccc(Cl)c(Cl)c2)c2ccccc21 [Apoptosis Activator 2] | 54.2
57 | NS(=O)(=O)c1cc2c(cc1Cl)NCNS2(=O)=O [Hydrochlorothiazide] | 109
58 | O=C1c2cccc(O)c2C(=O)c2c(O)cc(CO)cc21 [Aloe-emodin] | 96.3
59 | CN(C)CCC=C1c2ccccc2C=Cc2ccccc21 [Cyclobenzaprine hydrochloride] | 81.6
60 | CN(C)CCc1c[nH]c2ccc(C[C@H]3COC(=O)N3)cc12 [Zolmitriptan (Zomig)] | 99
61 | CC(C)(F)C[C@H](N[C@@H](c1ccc(-c2ccc(S(C)(=O)=O)cc2)cc1)C(F)(F)F)C(=O)NC1(C#N)CC1 [Odanacatib (MK 0822)] | 86.6
62 | COc1cc(C)c(/C=C/C(C)=C/C=C/C(C)=C/C(=O)O)c(C)c1C [Acitretin] | 95.1 ± 8.5
63 | C[C@H](NC(=O)[C@@H]1CCCN1C(=O)[C@@H]1CCCN1C(=O)[C@@H](O)[C@H](N)Cc1ccccc1)C(N)=O [Apstatin] | 99.4
64 | CC(c1cc2ccccc2s1)N(O)C(N)=O (configuration not stated) [Zileuton] | 106
65 | Nc1ccc(-c2cccc3c(=O)cc(N4CCOCC4)oc23)cc1 | 80.5
66 | CC[N+](C)(CC)CC(=O)Nc1c(C)cccc1C [N-Methyllidocaine iodide] | 98.4
67 | C[C@@H]1C(=O)O[C@H]2C[C@@]34[C@H]5C[C@@H](C(C)(C)C)[C@]36[C@@H](OC(=O)[C@@H]6O)O[C@@]4(C(=O)O5)[C@]21O [Ginkgolide A] | 96.3
